This passage reports activation results from PubChem BioAssay AID1346428 (National Center for Advancing Translational Sciences (NCATS), 2018).

SMILES strings stand for the structures. The campaign covered roughly 48,000 compounds. About 1,200 (2.5%) were called active. Roughly 2% stayed inconclusive and do not appear here.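 How the source made its calls: active means activation of at least 60% and not above a set upper limit (about 1 call in 100 departs from these limits); inconclusive means activation of 40% to 60%, or above that upper limit; inactive means activation under 40%.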 The list shows a part of the results.

Chain of UniProt O75388 (O75388 whole entry, looked up): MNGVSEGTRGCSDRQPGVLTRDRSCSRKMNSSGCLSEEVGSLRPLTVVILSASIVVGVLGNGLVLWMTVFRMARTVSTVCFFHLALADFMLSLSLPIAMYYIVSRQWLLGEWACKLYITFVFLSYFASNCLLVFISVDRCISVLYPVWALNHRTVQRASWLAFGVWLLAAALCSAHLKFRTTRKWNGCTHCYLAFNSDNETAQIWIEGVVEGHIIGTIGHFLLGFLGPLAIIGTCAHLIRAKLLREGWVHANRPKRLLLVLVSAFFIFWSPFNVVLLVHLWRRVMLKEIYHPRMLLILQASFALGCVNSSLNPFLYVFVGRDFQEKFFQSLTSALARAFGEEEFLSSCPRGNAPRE

This experiment has as its target Probable G-protein coupled receptor 32 (Homo sapiens) (UniProt O75388). Briefly: qHTS for Agonists of Human Resolvin D1 Receptor DRV1. Further: 0% is about no effect. To be noted: CHO-K1 GPR32 beta-arrestin PathHunter luminescence, 90 min; at 76.9 µM; active compounds read high; zero percent set by DMSO-only wells. Put shortly:
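Engineered CHO-K1 line co-expressing GPR32-ProLink and EA-beta-arrestin. Compound treatment lasted 90 min at 37 °C. Luminescence was recorded after 1 h with substrate at ambient temperature, relative to DMSO basal wells.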
Regarding `Cc1ccc(NC(=O)Cn2ccn(Cc3ccc(Cl)cc3)c(=O)c2=O)cc1C`, the activation is inactive: -15.1%.
Regarding `COc1ccc(CNC(=O)c2cnn(-c3ccc(C)cc3)c2C2CCN(C(=O)OC(C)(C)C)CC2)cc1`, the activation was inactive: -13%.
Then `Cc1ccc(-n2ncc3c(Nc4ccc5c(c4)OCCO5)ncnc32)cc1C`, with inactive: -2.66%; and `CCOc1ccccc1C(=O)N1CCc2cc(OC)c(OC)cc2C1COc1ccc2c(C)cc(=O)oc2c1` (centres undefined), with inactive: 8.41%.
Turning to `COc1ccc(/C=C(\NC(=O)c2ccccc2)C(=O)NC2CCCCC2)cc1`, the activation was inactive: -6.67%.
The result for `CCOc1ccc(NC(=O)NC(CC)Cn2nnc3ccccc3c2=O)cc1` (centres undefined) reads inactive: -10.5%.
Regarding `Cc1ccc(OCCSc2nc3ccccc3n2CCC(=O)O)cc1C`, the activation is inactive: -9.2%.
For the molecule `Cc1nc2ncnn2c(C)c1CCC(=O)NCc1ccc(Cl)cc1`, the activation was inactive: -5.38%.
For the molecule `O=C(CSc1ncc(S(=O)(=O)c2ccc(Br)cc2)c(=O)[nH]1)NCc1ccccc1Cl`, the activation is inactive: 22%.
In the case of `CCN1CCN(C(c2ccc(Cl)cc2)c2c(O)cc(C)n(CCOC)c2=O)CC1` (centres undefined), the activation is inactive: -12.4%.
As for `COc1ccc(-c2cc(C(=O)Oc3ccc(Cl)cc3)c3ccccc3n2)cc1`, the activation was inactive: -38.6%.
Then `Cc1cc(C)cc(N(CC(=O)Nc2ccc(C(F)(F)F)cc2)S(=O)(=O)c2c(C)[nH]c(=O)[nH]c2=O)c1`, with active: 112%; and `CCCCn1cnc2cc(NC(=O)c3cc(OC)c(OC)c(OC)c3)ccc21`, with inactive: -8.16%; and `O=C1C(=O)N(C2CCN(C(=O)c3ccc(F)cc3)CC2)CCN1Cc1ccc(F)cc1`, with inactive: -36.1%.
Regarding `CC1CCc2c(sc3nnn(CC(=O)Nc4cccc(C(F)(F)F)c4)c(=O)c23)C1` (centres undefined), the activation is inactive: -6.9%.
The result for `COc1ccc(-c2cc(C(F)(F)F)nc(NCc3ccccc3)n2)cc1OC` reads inactive: -37.6%.
Then `COc1cccc(CN2c3ccccc3-c3nc(SCC(=O)Nc4cccc(C)c4)ncc3S2(=O)=O)c1`, with inactive: -3.73%.
For the molecule `CCOc1ccc(NCc2cccn2-c2nnc(N3CCC(C(=O)NC(C)c4ccccc4)CC3)s2)cc1` (centres undefined), the activation is inactive: -39.2%.
The result for `Cc1cccc(OC(C)C(=O)N2CCC(c3nc4ccccc4o3)CC2)c1C` (centres undefined) reads inactive: -4.37%.
The result for `CCc1ccc2oc(-c3cccc(NC(=O)c4ccc(-c5cccc([N+](=O)[O-])c5)o4)c3)nc2c1` reads inactive: 34.3%.
On to `CCOc1ccc(Br)cc1C1C(C(=O)Nc2ccccc2OC)=C(C)Nc2nnnn21` (centres undefined), for which the activation was inactive: -1.53%.
Take `CCc1nnc2c3ccccc3nc(Nc3ccc(F)cc3C)n12`: the activation was inactive: 19.8%.
The result for `CCN1C(C(=O)c2ccccc2)=C(OC(=O)c2ccc(Cl)cc2)c2ccccc2S1(=O)=O` reads inactive: -55.8%; that for `CCOc1cccc(NC(=O)CSc2ncc(-c3ccc(Cl)cc3)[nH]2)c1`, inactive: -15.1%.
Turning to `CC(=O)N1c2ccc(S(=O)(=O)NCCc3cccc(C)c3)cc2CC1C` (centres undefined), the activation is inactive: 40.7%.
With `COc1ccc(N2CCN(CC(O)COc3ccc(C)c(C)c3)CC2)cc1` (centres undefined), the activation is inactive: -23.2%.
With `CCn1c(=O)c(=O)n(CC)c2cc(N3CCCCC3)c(NC(=O)c3cccc(OC)c3)cc21`, the activation was inactive: 1.54%.
Then `CCOC(=O)c1cccc(NC(=O)N2Cc3ccccc3Oc3ncccc32)c1`, with inactive: -19%.
The result for `Cc1oc(-c2ccc(C(=O)N(C)Cc3ccccc3)cc2)nc1CN1CCc2ccccc21` reads inactive: -6.13%; that for `COc1ccc(-n2c(=O)c3c4c(sc3n(Cc3ccccc3)c2=O)CCC4)c(OC)c1`, inactive: -22%.
Then `CCCCN(CCCC)S(=O)(=O)c1ccc(NC(=O)c2c(-c3ccccc3)noc2C)cc1`, with inactive: -7.11%; and `CCOC(=O)c1ccc(-c2ccc(/C=C(\C#N)C(=O)Nc3cccc(C)c3)o2)cc1`, with inactive: -2.25%.
Take `CC1(C)OC(=O)NC1=O`: the activation is inactive: -13.5%.
Then `Cc1ccc(NC(=O)CC2Sc3ccccc3NC2=O)c(C)c1` (centres undefined), with inactive: -3.55%; and `CCN(C(=O)c1cc(S(=O)(=O)N2CCCCC2)c[nH]1)c1ccc(OC)cc1`, with inactive: 1.93%.
As for `Cc1cc(C)cc(OCCOCCn2c(-c3ccc(Cl)cc3)nc3ccccc3c2=O)c1`, the activation is inactive: -5.74%.
As for `C=Cc1ccc(CSc2nc(-c3ccc(Cl)cc3)nc3c2Cc2c(CO)cnc(C)c2O3)cc1`, the activation is inactive: 39.3%.
Then `CCOc1ccc(-n2c(-c3ccc(OC)cc3)cc3c2CC(C)(C)CC3=O)cc1`, with inactive: -31.1%; and `Cc1nc2sc(C)c(C)n2c(=O)c1S(=O)(=O)NCCc1ccc(Cl)cc1`, with inactive: -7.47%.
Then `Cc1ccc(CN(Cc2cccn2-c2nnc(N3CCCC3=O)s2)C(=O)Nc2cc(C)cc(C)c2)cc1`, with inactive: -13.9%.
On to `CN1C(=O)c2ccccc2Sc2ccc(NC(=O)NCc3ccccc3Br)cc21`, for which the activation was inactive: -1.64%.
Then `O=C(C1CCCN(S(=O)(=O)c2cccs2)C1)N1CCN(c2ccccc2F)CC1` (centres undefined), with inactive: 6.6%; and `COc1cccc(CN2C(=O)C3(SCC(=O)N3c3ccc(F)cc3)c3ccccc32)c1` (centres undefined), with inactive: -7.23%; and `COc1ccc(-c2nc3c(c(SCC(=O)Nc4cc(C)cc(C)c4)n2)Cc2c(CO)cnc(C)c2O3)cc1`, with inactive: 3.86%.
On to `Cc1ccc(CN(Cc2ccco2)C(=O)c2ccccc2Cl)o1`, for which the activation is inactive: -25.1%.
The result for `C#C[C@]1(O)CC[C@H]2[C@@H]3CCC4=Cc5oncc5CC4(C)[C@H]3CCC21C` (some centres undefined) reads inactive: 3.5%; that for `O=C(NCc1cccc(Cl)c1)c1ccc2c(c1)nc1n2CCOC1`, inactive: -10.2%; that for `CC(=O)c1ccc(NC(=O)c2cn(C)c(=O)c3ccccc23)cc1`, inactive: -15.1%.
The result for `O=C(NC1CC(=O)N(c2ccccc2)C1)c1cccs1` (centres undefined) reads inactive: 0.0942%; that for `COc1ccc(NS(=O)(=O)c2ccc(N)cc2)nn1`, inactive: 14.2%.
The result for `COc1ccc(-c2nc(CCNC(=O)Cc3ccc(F)cc3)cs2)cc1` reads inactive: -16.3%; that for `Nc1ccc(C(=O)NCC(=O)O)cc1`, inactive: 2.97%; that for `c1ccc(CNc2ncnc3[nH]ncc23)cc1`, inactive: 36.6%.
As for `CCOC(=O)N1CCc2c(sc3c2c(=O)n(CCc2ccccc2)c(=O)n3Cc2ccc(C)cc2C)C1`, the activation was inactive: -13.8%.
Then `Cc1cccc(C(=O)Nc2nc3c(s2)CCCC3)c1`, with inactive: -12.4%; and `CCOCCc1nn2c(=O)cc(COC(=O)c3ccccc3NC(=O)c3cccs3)nc2s1`, with inactive: -8.46%.
The result for `CSc1ccc(CCNC(=O)c2ccc3c(c2)nc2n3CCC(C)C2)cc1` (centres undefined) reads inactive: -6.48%; that for `COc1ccc(N2CCN(C(=O)c3c(C)nn(-c4ccc(F)cc4)c3-n3cccc3)CC2)cc1`, inactive: -5.44%.
Consider `CCc1ccccc1NC(=O)N1CC(CC)Oc2ccc(Cl)cc21` (centres undefined), for which the activation was inactive: -20.3%.
Then `COc1ccc(CCNC(=O)c2cc3cccc4c3n2CC(C)S4)c(OC)c1OC` (centres undefined), with inactive: -24.3%.
Then `CCCC(=O)Nc1c(C(=O)N2CCN(c3ccccc3)CC2)oc2ccccc12`, with inactive: -20.4%; and `CC(C)c1ccc(S(=O)(=O)Nc2cc3c(cc2NCc2ccccc2)n(C)c(=O)n3C)cc1`, with inactive: 46.7%.
The result for `COc1ccccc1C(=O)N1CCC(c2c[nH]c3ccccc23)(c2c[nH]c3ccccc23)CC1` reads inactive: -35.9%.
As to `O=C(CSc1nc(-c2ccccc2)[nH]c1-c1ccc(F)cc1)NC1CCCC1`, the activation is inactive: -19.7%.
As for `CCC(=O)N1CCc2cc(S(=O)(=O)NC(Cc3ccccc3)C(=O)Nc3ccc(Cl)cc3)ccc21` (centres undefined), the activation is inactive: -17.5%.
On to `CCOc1ccccc1NC(=O)Cn1c(=O)n(Cc2ccco2)c(=O)c2cccnc21`, for which the activation is inactive: -18.7%.
As to `CC(C)(C)c1ccc(C(=O)Nc2ccc3nc(SCC(=O)N4CCCC4)sc3c2)cc1`, the activation was inactive: 24.6%.
For `COc1ccccc1C(=O)CC1(O)C(=O)N(CC(N)=O)c2ccccc21` (centres undefined), the activation is inactive: 0.352%.
Regarding `CCc1ccccc1NC(=O)C1=CC(c2ccc3c(c2)OCO3)=NS(=O)(=O)N1C`, the activation was inactive: -19.7%.
In the case of `O=C(CN1C(=O)COc2ccc(S(=O)(=O)N3CCCCCC3)cc21)N1CCN(c2cccc(Cl)c2)CC1`, the activation was inactive: -18.4%.
For `CC(C)(C)OC(=O)N1CCC(c2c(C(=O)O)cnn2-c2ccc(F)cc2F)CC1`, the activation was inactive: 10.7%.
The result for `O=C(C1COc2cc(S(=O)(=O)Nc3ccc(Cl)cc3)ccc2O1)N1CCCC1` (centres undefined) reads inactive: -4.39%; that for `COc1ccc(C(=O)c2cn(Cc3ccc(F)cc3)c3c(F)cc(F)cc3c2=O)cc1`, inactive: 4.22%.
The result for `Fc1ccc(-c2nnc(CN3CCN(c4ccccn4)CC3)o2)cc1` reads inactive: 1.21%.
The result for `CC(C)NS(=O)(=O)c1ccc(OCC(=O)N2CCN(c3cccc(Cl)c3)CC2)cc1` reads inactive: 34.8%; that for `COc1cc(C2C(C(=O)Nc3ccccc3)=C(C)Nc3nc(SCC(=O)c4ccc(C)cc4)nn32)ccc1O` (centres undefined), inactive: 15.6%; that for `O=C(Cn1ncc2c3ccccc3n(Cc3ccccc3)c2c1=O)NCc1ccccc1`, inactive: 15%.
Consider `COC(=O)c1c(NC(=O)CCCOc2cccc(C)c2)sc2c1CCC(C)C2` (centres undefined), for which the activation is inactive: -3.77%.
In the case of `CCc1ccccc1N(C)C(=O)c1cc2c(s1)-c1c(C)cccc1OC2`, the activation is inactive: -34.3%.
Consider `Cc1ccc(Cn2c(C)c(CNCc3ccccc3F)c(C(=O)O)c2C)cc1`, for which the activation is inactive: 13.2%.
Then `COc1ccccc1C(=O)Nc1ccc(-c2nc3cc(C)cc(C)c3o2)cc1`, with inactive: -8.3%; and `Cc1ccc(NC(=O)CSc2nc3ccc(NC(=O)c4cccc(Cl)c4)cc3s2)c(C)c1`, with inactive: -17.2%.
For the molecule `CCOC(=O)c1ccc(N2C(=O)c3n[nH]c(-c4ccco4)c3C2c2cccc(F)c2)cc1` (centres undefined), the activation is inactive: 23%.
Then `CCC[C@H](N[C@@H](C)C(=O)N1[C@H](C(=O)O)C[C@@H]2CCCC[C@@H]21)C(=O)OCC`, with inactive: 5.79%.
